Laboratory results reported in publication PMC5047623 (PLoS ONE, 2016).

Target: full-length flag-tagged integrin α5ß1 (human, UniProt P08648 42-1049; P05556)
Assay: cell-based or functional assay

UniProt P08648, sequence (P08648 42-1049, chain 1 of 2): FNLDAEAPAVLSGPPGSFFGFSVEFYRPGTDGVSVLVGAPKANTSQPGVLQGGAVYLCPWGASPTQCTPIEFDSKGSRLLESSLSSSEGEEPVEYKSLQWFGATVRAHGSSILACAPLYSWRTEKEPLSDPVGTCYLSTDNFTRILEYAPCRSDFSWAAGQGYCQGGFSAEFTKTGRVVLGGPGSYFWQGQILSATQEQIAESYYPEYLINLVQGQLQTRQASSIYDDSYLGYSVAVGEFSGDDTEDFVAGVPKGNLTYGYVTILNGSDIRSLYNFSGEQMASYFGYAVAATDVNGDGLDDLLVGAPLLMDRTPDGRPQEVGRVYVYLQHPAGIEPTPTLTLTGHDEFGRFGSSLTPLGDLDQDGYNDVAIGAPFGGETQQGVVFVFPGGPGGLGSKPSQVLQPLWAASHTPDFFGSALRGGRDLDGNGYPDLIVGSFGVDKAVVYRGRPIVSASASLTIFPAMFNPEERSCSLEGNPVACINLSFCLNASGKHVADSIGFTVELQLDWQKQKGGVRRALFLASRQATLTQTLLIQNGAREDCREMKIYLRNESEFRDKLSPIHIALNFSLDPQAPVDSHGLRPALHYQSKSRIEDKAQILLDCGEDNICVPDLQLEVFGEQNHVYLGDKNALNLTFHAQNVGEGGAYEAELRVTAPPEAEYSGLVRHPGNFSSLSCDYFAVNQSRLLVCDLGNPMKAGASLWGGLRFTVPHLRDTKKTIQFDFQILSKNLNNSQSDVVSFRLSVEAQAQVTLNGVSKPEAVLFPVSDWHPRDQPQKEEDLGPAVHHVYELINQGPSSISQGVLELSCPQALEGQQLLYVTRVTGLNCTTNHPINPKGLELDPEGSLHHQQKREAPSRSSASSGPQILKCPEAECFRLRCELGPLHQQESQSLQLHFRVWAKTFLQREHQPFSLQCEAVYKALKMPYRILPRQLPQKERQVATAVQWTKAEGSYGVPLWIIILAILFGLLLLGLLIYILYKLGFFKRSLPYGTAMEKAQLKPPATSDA
UniProt P08648, sequence (P05556 21-798, chain 2 of 2, further chain): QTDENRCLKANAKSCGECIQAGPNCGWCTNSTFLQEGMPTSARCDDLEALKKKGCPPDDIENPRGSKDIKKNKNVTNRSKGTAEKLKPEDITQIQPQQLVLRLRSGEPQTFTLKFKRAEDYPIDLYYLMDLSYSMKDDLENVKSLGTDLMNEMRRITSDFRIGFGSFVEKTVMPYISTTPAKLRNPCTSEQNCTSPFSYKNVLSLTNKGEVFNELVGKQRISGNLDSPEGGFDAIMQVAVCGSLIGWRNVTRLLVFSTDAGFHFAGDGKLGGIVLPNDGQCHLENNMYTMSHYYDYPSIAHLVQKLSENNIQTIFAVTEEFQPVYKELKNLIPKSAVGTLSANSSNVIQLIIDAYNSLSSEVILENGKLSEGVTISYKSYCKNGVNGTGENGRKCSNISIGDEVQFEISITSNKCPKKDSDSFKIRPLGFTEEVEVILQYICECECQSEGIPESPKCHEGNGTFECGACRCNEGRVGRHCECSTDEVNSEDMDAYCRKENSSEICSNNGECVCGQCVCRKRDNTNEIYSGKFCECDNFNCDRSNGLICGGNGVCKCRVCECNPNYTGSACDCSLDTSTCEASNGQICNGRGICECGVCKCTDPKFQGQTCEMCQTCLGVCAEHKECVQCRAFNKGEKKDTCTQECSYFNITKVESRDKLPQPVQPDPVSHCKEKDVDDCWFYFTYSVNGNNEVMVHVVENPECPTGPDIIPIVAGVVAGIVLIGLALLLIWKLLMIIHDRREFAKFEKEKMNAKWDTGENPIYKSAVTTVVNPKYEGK

MAPK (ERK1/2 T202/Y204) phosphorylation in TIME endothelial cells plated 15 minutes on fibronectin with 500 ng/mL Ang-1, against vehicle: ~1.6 fold
B1: full-length myc-tagged Tie2 receptor (receptor, UniProt Q02763 23-1124, looked up)
chain: AMDLILINSLPLVSDAETSLTCIASGWRPHEPITIGRDFEALMNQHQDPLEVTQDVTREWAKKVVWKREKASKINGAYFCEGRVRGEAIRIRTMKMRQQASFLPATLTMTVDKGDNVNISFKKVLIKEEDAVIYKNGSFIHSVPRHEVPDILEVHLPHAQPQDAGVYSARYIGGNLFTSAFTRLIVRRCEAQKWGPECNHLCTACMNNGVCHEDTGECICPPGFMGRTCEKACELHTFGRTCKERCSGQEGCKSYVFCLPDPYGCSCATGWKGLQCNEACHPGFYGPDCKLRCSCNNGEMCDRFQGCLCSPGWQGLQCEREGIQRMTPKIVDLPDHIEVNSGKFNPICKASGWPLPTNEEMTLVKPDGTVLHPKDFNHTDHFSVAIFTIHRILPPDSGVWVCSVNTVAGMVEKPFNISVKVLPKPLNAPNVIDTGHNFAVINISSEPYFGDGPIKSKKLLYKPVNHYEAWQHIQVTNEIVTLNYLEPRTEYELCVQLVRRGEGGEGHPGPVRRFTTASIGLPPPRGLNLLPKSQTTLNLTWQPIFPSSEDDFYVEVERRSVQKSDQQNIKVPGNLTSVLLNNLHPREQYVVRARVNTKAQGEWSEDLTAWTLSDILPPQPENIKISNITHSSAVISWTILDGYSISSITIRYKVQGKNEDQHVDVKIKNATITQYQLKGLEPETAYQVDIFAENNIGSSNPAFSHELVTLPESQAPADLGGGKMLLIAILGSAGMTCLTVLLAFLIILQLKRANVQRRMAQAFQNVREEPAVQFNSGTLALNRKVKNNPDPTIYPVLDWNDIKFQDVIGEGNFGQVLKARIKKDGLRMDAAIKRMKEYASKDDHRDFAGELEVLCKLGHHPNIINLLGACEHRGYLYLAIEYAPHGNLLDFLRKSRVLETDPAFAIANSTASTLSSQQLLHFAADVARGMDYLSQKQFIHRDLAARNILVGENYVAKIADFGLSRGQEVYVKKTMGRLPVRWMAIESLNYSVYTTNSDVWSYGVLLWEIVSLGGTPYCGMTCAELYEKLPQGYRLEKPLNCDDEVYDLMRQCWREKPYERPSFAQILVSLNRMLEERKTYVNTTLYEKFTYAGIDCSAEEAA
